# Data reported in article PMC4336329 (PLoS ONE, 2015).
# Out of some 310,000 compounds screened, about 14,000 (4.5%) showed an effect of 50% or more. Effects have a minus sign here. The list shows a part of the results.
# Biological target: human ether-à-go-go-related gene (hERG) potassium channel (human, UniProt Q12809)
# Assay: primary screen, population patch clamp on CHO cells stably expressing hERG
# 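Also: peak tail current of the secondary pulse compared with the same well before compound.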
# human ether-à-go-go-related gene (hERG) potassium channel, sequence (Q12809 whole entry, looked up): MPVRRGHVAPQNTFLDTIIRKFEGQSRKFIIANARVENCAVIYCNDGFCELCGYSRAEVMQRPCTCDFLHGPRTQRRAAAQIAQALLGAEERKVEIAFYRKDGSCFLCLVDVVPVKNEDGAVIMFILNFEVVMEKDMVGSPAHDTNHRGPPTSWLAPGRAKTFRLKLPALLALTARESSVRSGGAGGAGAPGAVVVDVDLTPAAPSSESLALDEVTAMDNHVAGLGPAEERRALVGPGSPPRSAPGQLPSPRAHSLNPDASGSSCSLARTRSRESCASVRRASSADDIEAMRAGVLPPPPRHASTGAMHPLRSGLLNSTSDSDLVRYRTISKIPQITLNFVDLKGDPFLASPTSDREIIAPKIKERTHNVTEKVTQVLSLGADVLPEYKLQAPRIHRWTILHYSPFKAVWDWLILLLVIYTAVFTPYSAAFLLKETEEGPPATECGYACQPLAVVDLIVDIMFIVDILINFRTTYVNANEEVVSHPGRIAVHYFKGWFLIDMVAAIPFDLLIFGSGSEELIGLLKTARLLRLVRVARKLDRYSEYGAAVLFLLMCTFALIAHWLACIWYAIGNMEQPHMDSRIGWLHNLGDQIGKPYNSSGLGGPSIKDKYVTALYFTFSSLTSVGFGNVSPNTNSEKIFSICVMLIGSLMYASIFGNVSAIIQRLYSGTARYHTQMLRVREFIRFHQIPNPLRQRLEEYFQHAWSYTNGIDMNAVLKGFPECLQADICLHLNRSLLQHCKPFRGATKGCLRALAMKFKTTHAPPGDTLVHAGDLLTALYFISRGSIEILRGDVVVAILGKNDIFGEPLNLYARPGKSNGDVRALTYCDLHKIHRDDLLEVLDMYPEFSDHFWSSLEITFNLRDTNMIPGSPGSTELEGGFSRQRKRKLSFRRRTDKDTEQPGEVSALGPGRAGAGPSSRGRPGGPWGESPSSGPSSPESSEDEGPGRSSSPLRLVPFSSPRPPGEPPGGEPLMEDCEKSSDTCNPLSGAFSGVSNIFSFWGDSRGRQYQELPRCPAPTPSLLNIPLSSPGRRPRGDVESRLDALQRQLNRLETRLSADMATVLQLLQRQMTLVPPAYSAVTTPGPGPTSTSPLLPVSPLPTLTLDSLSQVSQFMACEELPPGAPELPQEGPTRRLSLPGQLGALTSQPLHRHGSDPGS
row,SMILES,"hERG current change (%, negative = inhibition) at 10uM [%]"
1,CCCCNC(=O)CSc1nc2ccccc2c(=O)n1Cc1ccc2c(c1)OCO2,4.77
2,CC(C)n1nnnc1SCC(=O)Nc1ccc2c(c1)OCO2,-4.66
3,COc1ccccc1C(=O)NCCC(=O)N1CCCCC1,20.7
4,CCOC(=O)C1CCN(S(=O)(=O)c2ccc(Cl)nc2)CC1,-2.6
5,COCCC(=O)N1CCC(Oc2ccc(C(=O)NCc3ccon3)cc2)CC1,3.38
6,O=C(C(=O)N1CCc2ccccc2C1)c1cn(CC(=O)N2CCCCC2)c2ccccc12,-14.6
7,O=C(/C=C/c1ccco1)NC(=S)Nc1nc(-c2ccc3ccccc3c2)cs1,1.82
8,CCc1ccc(NC(=O)c2cc(C(C)C)on2)cc1,-27.3
9,CN(C[C@H](Cc1ccccc1)N(C[C@@H](Cc1cccc2ccccc12)N(CCc1ccccc1)N=O)N=O)N=O.[Na+],18.9
10,Cc1ccc(C)c(NC(=S)N2CCC(NC(=O)C3CCCCC3)CC2)c1,4.41
11,CCCCOC(=O)CCc1nc2ccccc2[nH]1.Cl,6.35
12,COc1cccc(-c2ncc3ccccc3c2CO)c1,7.31
13,CC1CCC/C(=C\Nc2ccc(C(=O)O)c(O)c2)C1=O (stereo not shown),12.5
14,COc1ccccc1N1CCN(C(CNC(=O)Oc2ccccc2)c2cccnc2)CC1 (stereo not shown),-6.19
15,COCCCNc1cc(C)nc2ccccc12.Cl,-40.3
16,Cc1cccc(NC(=O)CSc2ccc(-c3ccc4c(c3)OCO4)nn2)c1C,-2.26
17,CSCCC(N=C(NS(=O)(=O)c1ccccc1)c1ccccc1)C(=O)O (stereo not shown),9.31
18,Cc1ccc(Cn2cc(S(=O)(=O)c3ccc(C(C)C)cc3)c(=O)c3cc4c(cc32)OCO4)cc1,-8.58
19,CCCCOCCCNC1=NCCCCC1,10.1
20,CCOC(=O)c1cnc(SCC(=O)NCc2cccs2)nc1N,2.83
21,CCCCCCS(=O)[C@H]1CS(=O)(=O)C[C@@H]1S(=O)CCCCCC (stereo partly shown),-66.7
22,CCC(=O)[C@@]1(C)[C@H](C)C[C@H]2[C@@H]3CCC4=CC(=O)C=C[C@]4(C)[C@H]3[C@@H](O)C[C@@]21C,10.2

row,SMILES,"hERG current change (%, negative = inhibition) at 10uM [%]"
1,COCCCNC(=O)C(F)(F)C(F)(F)C(=O)NCCCOC,6.49
2,Cc1onc(-c2ccccc2Cl)c1C(=O)N1CCOC12CCCCC2,1.15
3,CCOC(=O)/C=C1\NC(=O)C(C)S1 (stereo not shown),7.75
4,Cl.Clc1ccc(CN2C3=NCCN3c3ccccc32)cc1Cl,-75.9
5,COc1cc(/C=C2/SC(=S)N(Cc3ccccc3)C2=O)ccc1OCC(=O)O,15.9
6,O=c1[nH]c(=S)n(C2CC2)c(O)c1/C=N/Nc1ccccc1,-5.91
7,CCOc1ccc(-c2c(C(=O)N/N=C/c3ccoc3)nnn2-c2nonc2N)cc1,20.5
8,COc1ccc(/C=C/C(=O)OCC(=O)Nc2cc(S(=O)(=O)N(C)C)ccc2Cl)cc1,28.4
9,CC(C)C(NS(=O)(=O)c1ccc(Br)s1)C(=O)O (stereo not shown),9.49
10,CCc1nnc(NC(=O)CCC(=O)NCc2ccccc2OC)s1,0.441
11,CCCCCC1CC(CC#CCN2CCOCC2)C(=O)O1.O=C(O)C(=O)O (stereo not shown),-27.6
12,COc1ccc(NC(=O)CN2CCN(S(=O)(=O)N(C)C)CC2)cc1,-4.55
13,COc1ccc(CN(C)CC(=O)NC(C)c2ccccc2)cc1OC (stereo not shown),-17.8
14,O=C(O)c1cn(-c2ccc(F)cc2)c(=O)c2ccccc12,8.87
15,Cc1ccc(C)c(NC(=O)CN(C)C(=O)c2ccccc2OCc2ccccc2Cl)c1,-7.27
16,COc1ccc(/C=N/NC(=O)c2cccc(Br)c2)cc1COc1ccccn1,-17.2
17,Cc1ccn2cc(-c3cccc(NC(=O)c4ccccc4)c3)nc2c1,-19.6
18,CC(OC(=O)c1ccc(-c2ccc(O)cc2)cc1)C(=O)NC1CCCCC1C (stereo not shown),-6.35
19,CSc1ccc(CN(C)C(=O)CSCC(=O)Nc2cc(C)on2)cc1,6.59
20,Cc1cc(C(=O)CSc2nnc(-c3ccc(Cl)cc3)n2C)c(C)n1CC1CCCO1 (stereo not shown),8.08
21,COc1ccc(/C(N)=N/OC(=O)c2ccco2)cc1OC,11.7
